# Source: the supplement of paper PMC8728848
# This is one part of the list.
# B1: AAL (Agrocybe aegerita), Q6WY08 (protein)
# chain: MQGVNIYNISAGTSVDLAAPVTTGDIVTFFSSALNLNAGAGNPNNTTLNLFAENGAYLLHIAHRLQENVIIFNSRQPDGPWLVEQRVSDVANQFAGIDGKAMVTVFDHGDKYQVVINEKTVIQYTKQISGLTLSLSYNATEETSIFSTVVEAVTYTGLALEHHHHHH
# Legend:
# Experiment in all cases: glycan array binding signal (z-score within array); higher = stronger binding
# Details in all cases: glycan notation: IUPAC condensed, linker removed; mutation: F63H
# [1] = biological target: Fuc(a1-2)Gal6S(b1-3)GlcNAc
# Outline: (§1)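 The binding signal is a Z-score computed within each array. Data were drawn from 3228 arrays in the Consortium for Functional Glycomics database, restricted to those with a known protein sequence. Scores were averaged over arrays of the same protein sequence at different concentrations or buffers, and over linkers, and negative values can be taken as non-binding.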
# [2] = biological target: Fuc(a1-2)Gal6S(b1-3)GlcNAc6S
# Outline: as §1
# Fuc(a1-2)Gal6S(b1-4)Glc = biological target: Fuc(a1-2)Gal6S(b1-4)Glc
# Outline: as §1
# [3] = biological target: Fuc(a1-2)Gal6S(b1-4)Glc6S
# Outline: as §1
# Fuc(a1-2)[Gal(a1-3)]Gal = biological target: Fuc(a1-2)[Gal(a1-3)]Gal
# Outline: as §1
# [4] = biological target: Fuc(a1-2)[Gal(a1-3)]Gal(b1-3)GalNAc
# Outline: as §1
# [5] = biological target: Fuc(a1-2)[Gal(a1-3)]Gal(b1-3)GalNAc(b1-3)Gal(a1-4)Gal(b1-4)Glc
# Outline: as §1
# [6] = biological target: Fuc(a1-2)[Gal(a1-3)]Gal(b1-3)GlcNAc
# Outline: as §1
# [7] = biological target: Fuc(a1-2)[Gal(a1-3)]Gal(b1-3)GlcNAc(b1-2)Man(a1-3)[Fuc(a1-2)[Gal(a1-3)]Gal(b1-3)GlcNAc(b1-2)Man(a1-6)]Man(b1-4)GlcNAc(b1-4)GlcNAc
# Outline: as §1
# [8] = biological target: Fuc(a1-2)[Gal(a1-3)]Gal(b1-3)GlcNAc(b1-2)Man(a1-3)[Fuc(a1-2)[Gal(a1-3)]Gal(b1-3)GlcNAc(b1-2)Man(a1-6)]Man(b1-4)GlcNAc(b1-4)[Fuc(a1-6)]GlcNAc
# Outline: as §1
# [9] = biological target: Fuc(a1-2)[Gal(a1-3)]Gal(b1-3)GlcNAc(b1-3)GalNAc
# Outline: as §1
# [10] = biological target: Fuc(a1-2)[Gal(a1-3)]Gal(b1-3)GlcNAc(b1-6)GalNAc
# Outline: as §1
# [11] = biological target: Fuc(a1-2)[Gal(a1-3)]Gal(b1-4)Glc
# Outline: as §1
# [12] = biological target: Fuc(a1-2)[Gal(a1-3)]Gal(b1-4)GlcNAc
# Outline: as §1
# [13] = biological target: Fuc(a1-2)[Gal(a1-3)]Gal(b1-4)GlcNAc(b1-2)Man
# Outline: as §1
# [14] = biological target: Fuc(a1-2)[Gal(a1-3)]Gal(b1-4)GlcNAc(b1-2)Man(a1-3)[Fuc(a1-2)[Gal(a1-3)]Gal(b1-4)GlcNAc(b1-2)Man(a1-6)]Man(b1-4)GlcNAc(b1-4)GlcNAc
# Outline: as §1
# [15] = biological target: Fuc(a1-2)[Gal(a1-3)]Gal(b1-4)GlcNAc(b1-2)Man(a1-3)[Fuc(a1-2)[Gal(a1-3)]Gal(b1-4)GlcNAc(b1-2)Man(a1-6)]Man(b1-4)GlcNAc(b1-4)[Fuc(a1-6)]GlcNAc
# Outline: as §1
# [16] = biological target: Fuc(a1-2)[Gal(a1-3)]Gal(b1-4)GlcNAc(b1-3)GalNAc
# Outline: as §1
# [17] = biological target: Fuc(a1-2)[Gal(a1-3)]Gal(b1-4)GlcNAc(b1-3)[Fuc(a1-2)[Gal(a1-3)]Gal(b1-4)GlcNAc(b1-6)]GalNAc
# Outline: as §1
# [18] = biological target: Fuc(a1-2)[Gal(a1-3)]Gal(b1-4)GlcNAc(b1-6)GalNAc
# Outline: as §1
# [19] = biological target: Fuc(a1-2)[Gal(a1-3)]Gal(b1-4)[Fuc(a1-3)]Glc
# Outline: as §1
# [20] = biological target: Fuc(a1-2)[Gal(a1-3)]Gal(b1-4)[Fuc(a1-3)]GlcNAc
# Outline: as §1
# [21] = biological target: Fuc(a1-2)[Gal(a1-3)]Gal(b1-4)[Fuc(a1-3)]GlcNAc(b1-3)GalNAc
# Outline: as §1
# [22] = biological target: Fuc(a1-2)[Gal(a1-4)]Gal(b1-4)GlcNAc
# Outline: as §1
# [23] = biological target: Fuc(a1-2)[GalNAc(a1-3)]Gal
# Outline: as §1
# [24] = biological target: Fuc(a1-2)[GalNAc(a1-3)]Gal(b1-3)GalNAc(a1-3)[Fuc(a1-2)]Gal(b1-4)GlcNAc
# Outline: as §1
# [25] = biological target: Fuc(a1-2)[GalNAc(a1-3)]Gal(b1-3)GalNAc(b1-3)Gal(a1-4)Gal(b1-4)Glc
# Outline: as §1
# [26] = biological target: Fuc(a1-2)[GalNAc(a1-3)]Gal(b1-3)GlcNAc
# Outline: as §1
# [27] = biological target: Fuc(a1-2)[GalNAc(a1-3)]Gal(b1-3)GlcNAc(b1-2)Man(a1-3)[Fuc(a1-2)[GalNAc(a1-3)]Gal(b1-3)GlcNAc(b1-2)Man(a1-6)]Man(b1-4)GlcNAc(b1-4)GlcNAc
# Outline: as §1
# [28] = biological target: Fuc(a1-2)[GalNAc(a1-3)]Gal(b1-3)GlcNAc(b1-2)Man(a1-3)[Fuc(a1-2)[GalNAc(a1-3)]Gal(b1-3)GlcNAc(b1-2)Man(a1-6)]Man(b1-4)GlcNAc(b1-4)[Fuc(a1-6)]GlcNAc
# Outline: as §1
# [29] = biological target: Fuc(a1-2)[GalNAc(a1-3)]Gal(b1-3)GlcNAc(b1-3)GalNAc
# Outline: as §1
# [30] = biological target: Fuc(a1-2)[GalNAc(a1-3)]Gal(b1-3)GlcNAc(b1-6)GalNAc
# Outline: as §1
# [31] = biological target: Fuc(a1-2)[GalNAc(a1-3)]Gal(b1-4)Glc
# Outline: as §1
# [32] = biological target: Fuc(a1-2)[GalNAc(a1-3)]Gal(b1-4)GlcNAc
# Outline: as §1
# [33] = biological target: Fuc(a1-2)[GalNAc(a1-3)]Gal(b1-4)GlcNAc(b1-2)Man
# Outline: as §1
# [34] = biological target: Fuc(a1-2)[GalNAc(a1-3)]Gal(b1-4)GlcNAc(b1-2)Man(a1-3)[Fuc(a1-2)[GalNAc(a1-3)]Gal(b1-4)GlcNAc(b1-2)Man(a1-6)]Man(b1-4)GlcNAc(b1-4)GlcNAc
# Outline: as §1
# [35] = biological target: Fuc(a1-2)[GalNAc(a1-3)]Gal(b1-4)GlcNAc(b1-2)Man(a1-3)[Fuc(a1-2)[GalNAc(a1-3)]Gal(b1-4)GlcNAc(b1-2)Man(a1-6)]Man(b1-4)GlcNAc(b1-4)[Fuc(a1-6)]GlcNAc
# Outline: as §1
# [36] = biological target: Fuc(a1-2)[GalNAc(a1-3)]Gal(b1-4)GlcNAc(b1-3)Gal(b1-4)GlcNAc
# Outline: as §1
# [37] = biological target: Fuc(a1-2)[GalNAc(a1-3)]Gal(b1-4)GlcNAc(b1-3)Gal(b1-4)GlcNAc(b1-3)Gal(b1-4)GlcNAc
# Outline: as §1
# [38] = biological target: Fuc(a1-2)[GalNAc(a1-3)]Gal(b1-4)GlcNAc(b1-3)GalNAc
# Outline: as §1
# [39] = biological target: Fuc(a1-2)[GalNAc(a1-3)]Gal(b1-4)GlcNAc(b1-3)[Fuc(a1-2)[GalNAc(a1-3)]Gal(b1-4)GlcNAc(b1-6)]GalNAc
# Outline: as §1
# [40] = biological target: Fuc(a1-2)[GalNAc(a1-3)]Gal(b1-4)GlcNAc(b1-6)GalNAc
# Outline: as §1
# [41] = biological target: Fuc(a1-2)[GalNAc(a1-3)]Gal(b1-4)[Fuc(a1-3)]GlcNAc
# Outline: as §1
# [42] = biological target: Fuc(a1-2)[GalNAc(a1-3)]Gal(b1-4)[Fuc(a1-3)]GlcNAc(b1-3)GalNAc
# Outline: as §1
# [43] = biological target: Fuc(a1-2)[GalNAc(a1-4)]Gal(b1-4)GlcNAc
# Outline: as §1
binder,measurement,setting,value
B1,glycan array binding signal (z-score),[1],-0.436
same,glycan array binding signal (z-score),[2],-0.047
same,glycan array binding signal (z-score),Fuc(a1-2)Gal6S(b1-4)Glc,0.107
same,glycan array binding signal (z-score),[3],-0.261
same,glycan array binding signal (z-score),Fuc(a1-2)[Gal(a1-3)]Gal,-0.165
same,glycan array binding signal (z-score),[4],0.343
same,glycan array binding signal (z-score),[5],-0.281
same,glycan array binding signal (z-score),[6],-0.214
same,glycan array binding signal (z-score),[7],-0.387
same,glycan array binding signal (z-score),[8],0.22
same,glycan array binding signal (z-score),[9],0.009
same,glycan array binding signal (z-score),[10],-0.089
same,glycan array binding signal (z-score),[11],-0.268
same,glycan array binding signal (z-score),[12],-0.031
same,glycan array binding signal (z-score),[13],-0.153
same,glycan array binding signal (z-score),[14],-0.014
same,glycan array binding signal (z-score),[15],-0.34
same,glycan array binding signal (z-score),[16],0.315
same,glycan array binding signal (z-score),[17],0.106
same,glycan array binding signal (z-score),[18],0.092
same,glycan array binding signal (z-score),[19],0.239
same,glycan array binding signal (z-score),[20],0.059
same,glycan array binding signal (z-score),[21],0.197
same,glycan array binding signal (z-score),[22],-0.525
same,glycan array binding signal (z-score),[23],0.079
same,glycan array binding signal (z-score),[24],-0.063
same,glycan array binding signal (z-score),[25],0.005
same,glycan array binding signal (z-score),[26],-0.281
same,glycan array binding signal (z-score),[27],-0.006
same,glycan array binding signal (z-score),[28],-0.159
same,glycan array binding signal (z-score),[29],0.304
same,glycan array binding signal (z-score),[30],-0.234
same,glycan array binding signal (z-score),[31],0.356
same,glycan array binding signal (z-score),[32],-0.058
same,glycan array binding signal (z-score),[33],-0.462
same,glycan array binding signal (z-score),[34],0.237
same,glycan array binding signal (z-score),[35],-0.141
same,glycan array binding signal (z-score),[36],-0.307
same,glycan array binding signal (z-score),[37],-0.016
same,glycan array binding signal (z-score),[38],-0.565
same,glycan array binding signal (z-score),[39],0.172
same,glycan array binding signal (z-score),[40],-0.202
same,glycan array binding signal (z-score),[41],-0.038
same,glycan array binding signal (z-score),[42],-0.211
same,glycan array binding signal (z-score),[43],0.336
